About 2,200 (0.71%) of roughly 310,000 compounds showed an effect of 50% or more. Effects have a minus sign here. The list shows a part of the results.
Target: human ether-à-go-go-related gene (hERG) potassium channel (human, UniProt Q12809)
Assay: primary screen, population patch clamp on CHO cells stably expressing hERG

human ether-à-go-go-related gene (hERG) potassium channel, sequence (Q12809 whole entry, looked up): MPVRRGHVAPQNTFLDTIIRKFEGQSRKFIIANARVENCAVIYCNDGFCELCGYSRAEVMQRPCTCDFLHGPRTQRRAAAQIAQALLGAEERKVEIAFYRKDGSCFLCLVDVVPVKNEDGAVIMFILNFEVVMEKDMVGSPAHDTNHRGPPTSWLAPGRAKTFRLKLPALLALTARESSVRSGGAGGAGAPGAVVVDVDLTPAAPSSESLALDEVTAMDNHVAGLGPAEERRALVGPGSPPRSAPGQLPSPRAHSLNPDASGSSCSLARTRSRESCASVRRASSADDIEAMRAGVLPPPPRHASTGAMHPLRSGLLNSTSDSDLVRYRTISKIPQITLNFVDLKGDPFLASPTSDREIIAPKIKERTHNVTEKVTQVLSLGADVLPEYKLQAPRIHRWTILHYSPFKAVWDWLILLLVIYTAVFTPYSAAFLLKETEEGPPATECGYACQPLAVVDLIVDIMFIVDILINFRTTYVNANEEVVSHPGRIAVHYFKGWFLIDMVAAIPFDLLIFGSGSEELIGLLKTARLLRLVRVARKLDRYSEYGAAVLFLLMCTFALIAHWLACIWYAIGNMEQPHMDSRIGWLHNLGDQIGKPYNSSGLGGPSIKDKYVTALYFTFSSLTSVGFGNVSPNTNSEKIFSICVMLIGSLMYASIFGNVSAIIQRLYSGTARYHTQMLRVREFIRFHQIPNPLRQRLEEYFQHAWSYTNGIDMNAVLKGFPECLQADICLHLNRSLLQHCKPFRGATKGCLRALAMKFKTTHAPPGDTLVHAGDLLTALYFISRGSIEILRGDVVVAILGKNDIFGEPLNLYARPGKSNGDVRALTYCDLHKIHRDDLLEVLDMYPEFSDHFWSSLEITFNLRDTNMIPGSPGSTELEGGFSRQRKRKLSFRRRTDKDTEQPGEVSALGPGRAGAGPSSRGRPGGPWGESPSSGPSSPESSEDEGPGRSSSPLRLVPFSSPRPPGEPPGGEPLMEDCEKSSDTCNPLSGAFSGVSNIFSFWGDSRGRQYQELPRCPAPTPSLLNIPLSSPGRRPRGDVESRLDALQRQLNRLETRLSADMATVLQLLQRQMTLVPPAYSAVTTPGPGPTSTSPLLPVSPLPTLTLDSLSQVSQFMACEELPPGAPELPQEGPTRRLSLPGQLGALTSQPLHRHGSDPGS

Row | Structure (SMILES) | hERG current change (%, negative = inhibition) at 1uM
1 | Cn1c(SCC(=O)Nc2cccc3ccccc23)nc(O)cc1=O | 1.37%
2 | Brc1cccc(/C=N/Nc2nc(N3CCCCC3)nc(N3CCCCC3)n2)c1 | 9.78%
3 | CC1=N/C(=C/c2cc(Br)cc(Br)c2O)C(=O)O1 | 13.5%
4 | c1ccc(CSc2nnc(-c3ccco3)n2Cc2ccco2)cc1 | -7.98%
5 | Cc1ccccc1-n1cc[nH]c1=S | 4.22%
6 | CCOc1ccc(S(=O)(=O)NCCC(=O)NCC2COc3ccccc3O2)cc1 (stereo not drawn) | 11.3%
7 | CCn1c(NC(=O)c2ccc(F)cc2)c2ccccc2nc1=O | 2.14%
8 | CN(Cc1ccccc1)c1nc(N)c([N+](=O)[O-])c(Nc2cccc(F)c2)n1 | 5.53%
9 | COc1cccc(N2CCN(CC(=O)Nc3nnc(-c4ccccc4)s3)CC2)c1 | 0.494%
10 | COC(=O)CSc1ncnc2c(C)csc12 | 14.4%
11 | Cn1c2ccccc2c2c(C(=O)N3CCC4(CC3)OCCO4)cn(C3CCCC3)c(=O)c21 | 4.27%
12 | O=C(CCc1ccccc1)NCc1ccccc1 | -1.14%
13 | O=C(CNC(=O)c1ccco1)OC(C(=O)c1ccccc1)c1ccccc1 (stereo not drawn) | -0.922%
14 | COc1cc(COCC(O)CN2CCN(Cc3ccc4c(c3)OCO4)CC2)cc(OC)c1OC.Cl (stereo not drawn) | 16.1%
15 | COc1ccccc1OCCNC(=O)CCNC(=O)c1ccccc1OC | 7.45%
16 | Nc1c(C(=O)NCCc2ccc(Cl)cc2)sc2ccc(S(=O)(=O)N3CCCCC3)cc12 | 7.2%
17 | O=C(NC1CC2CCCC(C1)N2C(=O)Nc1ccccc1Cl)C1CC1 (stereo not drawn) | 16.6%
18 | CC(=O)c1cc(N2CCC(C(=O)O)CC2)ccc1[N+](=O)[O-] | 11.9%
19 | CCOC(=O)c1c2n(c3ccc(OC(C)=O)cc13)CCC2 | 7.87%
20 | COc1ccc(S(=O)(=O)Nc2ccc(F)cc2)cc1N(C)S(=O)(=O)c1ccc(Cl)cc1 | 13.3%
21 | COc1ccc(NC(=O)c2cc(C3CC3)nc3c2cnn3C(C)C)cc1OC | 2.09%
22 | CCOC(=O)C1(Cc2ccc(OC)cc2)CCN(C(=O)CC2CCC(=O)N2)CC1 (stereo not drawn) | 15.5%
23 | Cc1ccc(-c2cc(C(=O)NCc3ccco3)no2)cc1 | 14.4%

Row | Structure (SMILES) | hERG current change (%, negative = inhibition) at 1uM
24 | COc1cc2c(cc1OC)[C@@H]1Cc3ccc(OC)c(OC)c3CN1CC2.Cl | 10.9%
25 | Cl.O=c1c2[nH]c3ccc(F)cc3c2ncn1C1CCCCC1 | 14.9%
26 | O=C(Nc1ccccc1C(=O)O)c1cccc(F)c1 | 10.3%
27 | CCCC(c1nnnn1C(C)(C)CC)N(CCCO)Cc1cc2cc(C)cc(C)c2[nH]c1=O (stereo not drawn) | 1.35%
28 | Cc1oc(-c2cc(F)ccc2F)nc1CN1CCN(C)C(=O)[C@@H]1C | 7.77%
29 | COc1ccc(C(CNC(=O)CNS(=O)(=O)c2ccc(NC(C)=O)cc2)N2CCOCC2)cc1 (stereo not drawn) | 9.53%
30 | CCOC(=O)Cc1nn(Cc2ccc(Cl)cc2)c(=O)c2ccccc12 | 12.6%
31 | O=S(=O)(NCc1ccccn1)c1cc(Cl)ccc1Cl | 12.5%
32 | CCc1ccc(C(=O)CN2C(=O)NC(C)(c3ccc(C)cc3)C2=O)cc1 (stereo not drawn) | 11.6%
33 | CC(C)Cc1cc(C(=O)Nc2cccnc2)no1 | 4.88%
34 | O=C(/C=C/c1ccccc1F)c1ccoc1 | 3.53%
35 | COc1ccc(N(Cc2cc(=O)[nH]c3ccccc23)C(=O)c2ccco2)cc1 | 8.05%
36 | CC(C)(C)c1ccc(C(=O)c2c[nH]c(C(=O)NCc3cccs3)c2)cc1 | 18.6%
37 | CC(C)(C)C(=O)C(Oc1cccc2nonc12)n1cncn1 (stereo not drawn) | 0.757%
38 | CC1CCC(NC(=O)c2cc3c(=O)n(C)c4ccccc4c3n2C)CC1 (stereo not drawn) | 3.84%
39 | CCN(CC)CCCNC(=O)c1ccc2c(Cl)c3c(nc2c1)CCCC3 | -10.9%
40 | O=C(c1ccc(Cl)cc1)c1cc([N+](=O)[O-])ccc1N1CCOCC1 | 10.3%
41 | O=C(c1ccccc1)c1cccc(NC(=O)c2ccc(Br)o2)c1 | -9.49%
42 | O=C(CNC(=O)c1ccc(Br)cc1)NCC(=O)OCC(=O)c1ccccc1 | 9.69%
43 | COc1ccc(Sc2nc(-c3ccccc3)ncc2OC)cc1 | 13.3%
44 | Cc1cc(C(=O)NNC(=O)c2cccs2)c(C)o1 | 5.64%
45 | CCOc1ccc(NC(=S)NN2CCN(C)CC2)cc1 | 12.2%
46 | c1ccc(N2CCOCC2)c(Nc2nc3ccccc3n3cnnc23)c1 | 9.55%

Row | Structure (SMILES) | hERG current change (%, negative = inhibition) at 1uM
47 | Cc1ccc(Cl)cc1NC(=O)c1ccccc1OCC(=O)N1CCOCC1 | -12%
48 | Cc1ccc(N=CC2=C(O)CC(c3cccc(Cl)c3)CC2=O)cc1 (stereo not drawn) | 7.47%
49 | COc1ccccc1CCC(=O)Nc1nccs1 | 15.3%
50 | Cc1ccc(S(=O)(=O)N2CCOCC2)cc1C(=O)c1nccn1C | 12.4%
51 | CCSc1nnc2ccc(-c3ccco3)nn12 | 10.3%
52 | CC(C)N(Cc1cc2ccccc2[nH]c1=O)C(=O)c1ccco1 | 11.1%
53 | O=C(CCc1nc2ccccc2c(=O)[nH]1)NNC(=O)COc1ccccc1Cl | 10.4%
54 | Cn1c(=O)c2c(ncn2CC(=O)OCC(=O)c2ccc(Cl)cc2)n(C)c1=O | 5.54%
55 | Cc1ccc(S(=O)(=O)N2CCC(CN3C(=O)c4cccc5cccc(c45)C3=O)CC2)cc1 | 12.6%
56 | Cc1sc2nc(SCC(=O)NCCOCCO)nc(N)c2c1C | 17%
57 | O=C(c1ccco1)N1CCN(c2nnc(-c3ccccc3)c3ccccc23)CC1 | -45.8%
58 | Cc1ccc(Cl)cc1N1CCN(C(=O)CSc2nnc3n2C(C)(C)Cc2ccccc2-3)CC1 | -26.5%
59 | Cc1cccc(CSc2nnc(-c3cnccn3)n2C)c1 | 8.29%
60 | COc1ccc(-c2ccc(C#N)c(SCC(=O)Nc3sc4c(c3C#N)CCC4)n2)cc1 | 13.6%
61 | CCc1c(C)nc(SCC(=O)NNC(=O)c2ccco2)[nH]c1=O | -8.27%
62 | O=C(Nc1ccc(OC(F)F)cc1)c1cc(S(=O)(=O)N2CCOCC2)ccc1F | -13.5%
63 | COc1ccc(/C=C/C(=O)OCn2c(SC)nnc(C)c2=O)cc1OC | -4.77%
64 | CN(C)c1ccc(C(=O)c2ccc(N(C)C)cc2)cc1 | -5.4%
65 | Cc1ccc2nsnc2c1NC(=O)COc1ccccc1 | 3.06%
66 | COc1cccc(C(=O)NC2CCN(CC(=O)Nc3nccs3)CC2)c1 | 14.9%
67 | Cc1ccc2oc(C(=O)N3CCC(N4CCSCC4)CC3)c(C)c2c1 | 6.76%
68 | Cc1ccccc1OCCNC(=S)Nc1ccccc1 | 6.99%
69 | O=C(COc1ccc(-c2ccccc2)cc1)N1CCN(C(=O)c2cccnc2)CC1 | -8.87%

Row | Structure (SMILES) | hERG current change (%, negative = inhibition) at 1uM
70 | N/C(=N/[N+](=O)[O-])N1CCN(C(=O)Oc2ccc([N+](=O)[O-])cc2)CC1 | 0.223%
71 | COc1cccc(CNC(=O)CCCc2cn(C)c3ccccc23)c1 | 7.93%
72 | COc1ccc(NC(=O)/C=C/c2ccccc2)c([N+](=O)[O-])c1 | 12.4%
73 | O=C(Nc1ccc(CN2CCOCC2)cc1)c1ccc(F)cc1 | 1.72%
74 | Oc1ccc(-c2csc(-c3c[nH]c4ccccc34)n2)c(O)c1 | 4.57%
75 | COc1cccc2c(=O)c3c(cnn3C)n(C)c12 | 15.2%
76 | NS(=O)(=O)c1ccc(CCNC(=O)COC(=O)CCN2C(=O)C3CC=CCC3C2=O)cc1 (stereo not drawn) | 6.31%
77 | O=C(Nc1cccc(-c2cn3cccnc3n2)c1)c1cccs1 | 14.3%
78 | Cc1ccc(OCC(=O)NN=C2C3CC4CC(C3)CC2C4)cc1 | 9.61%
79 | COC(=O)[C@@H]1CC[C@@](C)(c2ccc(OC)cc2)C1(C)C | 6.9%
80 | O=C(NC1CCCCC1)C(c1ccccn1)N(C(=O)Cc1cccs1)c1ccc(Cl)cc1 (stereo not drawn) | 6.38%
81 | Cn1cc(/C=C/C(=O)c2ccccc2)c2ccccc21 | 13.1%
82 | COc1ccc(C2CC(c3ccccc3OC(C)=O)=NN2C(=O)/C=C/c2ccccc2)cc1OC (stereo not drawn) | 13.1%
83 | O=C(NC1CCCCC1)N(Cc1ccc(F)cc1)Cc1nc2ccccc2c(=O)[nH]1 | 6.34%
84 | Cn1ccsc1=NC(=O)c1ccc(Cl)c([N+](=O)[O-])c1 | 10.4%
85 | CC(C)N(Cc1ccccc1)C(=O)COC(=O)/C=C/c1cnc2ccccc2n1 | 6.92%
86 | Cc1cc2ccccn2c1C(=O)c1ccc(NN)c([N+](=O)[O-])c1 | 0.0612%
87 | O=S(=O)(c1ccc(-c2ccccc2)cc1)N1CCCC1 | 4.65%
88 | C/C(CC(=O)Nc1ccc2c(c1)OCCO2)=N\NC(=O)c1ccccc1F | 19.7%
89 | COc1ccc(-c2csc(NC(=O)c3cccs3)c2C(=O)O)cc1OC | 9.47%
90 | O=C(NCc1ccccc1F)C1CCCN(C(=O)Nc2ccccc2)C1 (stereo not drawn) | 4.6%

— article PMC4336329 (PLoS ONE, 2015)
